# Experimental data from the supplement of paper PMC8728848.
# The other results are listed elsewhere or left out.
# B1: InvD YPIII (Yersinia pseudotuberculosis), B1JSC0 (protein)
# chain: MIKYFSFFKKPEPIVGILPNRQSHHILPTHIRRVAWGTLLLQLFIPLSVSFSPAIAAMKASKADTMVSYSSTEPYVLGSGETVAMVAKKYGITVDELKKINIYRTFSRPFTALTTGDEIDIPRKASPFSVDNNKDNRLSVENTLAGHAVAGATALSNGDVAKSGERMVRSAASNEFNNSAQQWLSQFGTARVQLNINDDFHLDGSAADVLIPLYDNEKSILFTQLGARNKDSRNTVNMGAGVRTFQGNWMYGANTFFDNDLTGKNRRIGVGAEAWTDYLKLSANNYFGITDWHQSRDFIDYNERPANGYDLRAEAYLPSYPQLGGKAMYEKYRGDDVALFGKDNRQKNPHAITAGVNYTPIPLVTIGAEHRAGKGGQNDSNINFQLNYRLGETWQSHIDPSAVAASRTLAGSRYDLVERNNHIVLDYQKQNLVRLSLPDSLAGDPFSQLSVTAQVTATHGLERIDWQSAELMAAGGVLKQTSKNGLEITLPEYQMNRTGGNSYILNAIAYDTQGNASSQASMLITVNAQKINIANSTLVAVPINIEANNSDTSVVTLTLKDDNNIPVTGQDVTFLSPLGTLSAMTDSGNGVYTATLTAGTVSGTTAVSSNINGSALDMTPATVTLNGNSGELSITHSMLVAAPVNIEANGSDTSVVTLTLRDSNNNPVTGQTVTFAGTLGTLGAVTEGSSGVYTATLTAGIMVGTSSITASVNSTALGVTPATVTLNGDSGNLSTTNSTLVAAPVNIEANSSDTSVVTLTLRDNNNNPVTGQTVVFTSTLGTLGNVTEQASGVYTATLTAGTVSGVASLSVSVGGNALGVTPATVTLNGDSGNLSTTNSTLVAAPVNIEANSSDTSVVTLTLRDNNNNPVTGQTVNFAGTLGTLGTVSEGSSGVYTTTLTAGTVAGVASLSVNVGGNALGVTPATVTLNGNSGNLSATNSTLVAAPVNIEANSSDTSVVTLTLRDNNNNPVTGQTVAFTSTLGTLGNVTEQASGVYTATLTAGTVSGVASLSVSVNSNALGVTPATVTLNGDSGNLSTTNSTLVAAPVNIEANSSDTSVVTLTLRDNNNNPVTGQTVAFTSTLGTLGNVTEQASGLYTATLTAGTVSGVASLSVNVGGNALGVTPATVTLNGDSGNLSATNSTLVAAPVNIEANSSDTSVVTLTLRDNNNNPVTGQTVAFTSTLGTLGNVTEQASGLYTATLTAGTVSGVASLSVNVGGTALGVTPATVTLNGDSGNLSTTNSTLVAAPVNIEANSSDTSVVTLTLRDNNNNPVTGQTVAFTSTLGTLGNVTEQASGLYTATLTAGTVSGVASLSVSVNSTALGVTPATVTLNGDSGNLSTTNSTLVAAPVNIEANSSDTSVVTLTLRDNNNNPVTGQTVAFTSTLGTLGNVTEQASGVYTATLTAGTVAGVASLSVNVGGNALGVTPATVTLNGDSGNLSTTNSTLVAAPVNIEANSSDTSVVTLTLRDNNNNPVTGQTVAFTSTLGTLGNVTEQASGVYTATLTAGTVSGVASLSVSVGSSALGVTPATVTLNGDSGNLSTTNSTLVAAPVNIEANNSDTSVVTLTLRDNNNNPVTGQTVAFTSTLGTLGNVTEQASGVYTATLTAGTVSGVASLSVSVNSNALGVTPATVTLNGDSGNLSTTNSTLVAAPVNIEANSSDTSVVTLTLRDNNNNPVTGQTVVFTSTLGTLGNVTEQASGLYTATLTAGTVSGVASLSVSVGGNALGVTGNITLAPGALDAARSILAVNKPSINADDRIGSTITFTAQDAQGNAITGLDIAFMTDLENSQIMTLVDHNDGTYTANINGTQTGIANIAVQSSGATIAGLAATMVTITPGAWNTTQATPVMTVALPITTCQSSSGVYKRYYIGIVTHELYDNYGNEISGILTYNLGAGRYTTVTSQNSSVSGSNGLTRRSNSPVSHFILTSDAYTSQAACYAERIANVNVTITVTAITDDFKTSAVNKVFILGTGSN
# Key:
# Experiment in all cases: glycan array binding signal (z-score within array); higher = stronger binding
# Conditions in all cases: glycan notation: IUPAC condensed, linker removed
# [1] = molecular target: Neu5Ac(a2-3)Gal(b1-3)GlcNAc(b1-6)GalNAc
# In short: (§1)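 From the Consortium for Functional Glycomics database, 3228 arrays were curated, keeping only those whose protein sequence was available. Binding is given as a within-array Z-score averaged across arrays sharing a protein sequence and across linkers. Negative Z-scores can be read as non-binding.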
# [2] = molecular target: Neu5Ac(a2-3)Gal(b1-3)GlcNAc6S
# In short: as §1
# [3] = molecular target: Neu5Ac(a2-3)Gal(b1-3)[Fuc(a1-4)]GlcNAc
# In short: as §1
# [4] = molecular target: Neu5Ac(a2-3)Gal(b1-3)[Fuc(a1-4)]GlcNAc(b1-3)Gal(b1-3)[Fuc(a1-4)]GlcNAc
# In short: as §1
# [5] = molecular target: Neu5Ac(a2-3)Gal(b1-3)[Fuc(a1-4)]GlcNAc(b1-3)Gal(b1-4)[Fuc(a1-3)]GlcNAc
# In short: as §1
# [6] = molecular target: Neu5Ac(a2-3)Gal(b1-3)[GlcNAc(b1-6)]GalNAc
# In short: as §1
# [7] = molecular target: Neu5Ac(a2-3)Gal(b1-3)[Neu5Ac(a2-6)]GalNAc
# In short: as §1
# [8] = molecular target: Neu5Ac(a2-3)Gal(b1-3)[Neu5Ac(a2-6)]GlcNAc(b1-3)[Fuc(a1-3)[Gal(b1-4)]GlcNAc(b1-6)]Gal(b1-4)Glc
# In short: as §1
# [9] = molecular target: Neu5Ac(a2-3)Gal(b1-3)]Neu5Ac(a2-3)Gal(b1-4)]GlcNAc
# In short: as §1
# Neu5Ac(a2-3)Gal(b1-4)Glc = molecular target: Neu5Ac(a2-3)Gal(b1-4)Glc
# In short: as §1
# [10] = molecular target: Neu5Ac(a2-3)Gal(b1-4)GlcNAc
# In short: as §1
# [11] = molecular target: Neu5Ac(a2-3)Gal(b1-4)GlcNAc(b1-2)Man
# In short: as §1
# [12] = molecular target: Neu5Ac(a2-3)Gal(b1-4)GlcNAc(b1-2)Man(a1-3)[GlcNAc(b1-4)][Neu5Ac(a2-3)Gal(b1-4)GlcNAc(b1-2)Man(a1-6)]Man(b1-4)GlcNAc(b1-4)GlcNAc
# In short: as §1
# [13] = molecular target: Neu5Ac(a2-3)Gal(b1-4)GlcNAc(b1-2)Man(a1-3)[Neu5Ac(a2-3)Gal(b1-4)GlcNAc(b1-2)Man(a1-6)]Man(b1-4)GlcNAc(b1-4)GlcNAc
# In short: as §1
# [14] = molecular target: Neu5Ac(a2-3)Gal(b1-4)GlcNAc(b1-2)Man(a1-3)[Neu5Ac(a2-3)Gal(b1-4)GlcNAc(b1-2)Man(a1-6)]Man(b1-4)GlcNAc(b1-4)[Fuc(a1-6)]GlcNAc
# In short: as §1
# [15] = molecular target: Neu5Ac(a2-3)Gal(b1-4)GlcNAc(b1-2)Man(a1-3)[Neu5Ac(a2-6)Gal(b1-4)GlcNAc(b1-2)Man(a1-6)]Man(b1-4)GlcNAc(b1-4)GlcNAc
# In short: as §1
# [16] = molecular target: Neu5Ac(a2-3)Gal(b1-4)GlcNAc(b1-2)[Neu5Ac(a2-3)Gal(b1-4)GlcNAc(b1-4)]Man(a1-3)[GlcNAc(b1-4)][Neu5Ac(a2-3)Gal(b1-4)GlcNAc(b1-2)[Neu5Ac(a2-3)Gal(b1-4)GlcNAc(b1-6)]Man(a1-6)]Man(b1-4)GlcNAc(b1-4)GlcNAc
# In short: as §1
# [17] = molecular target: Neu5Ac(a2-3)Gal(b1-4)GlcNAc(b1-2)[Neu5Ac(a2-3)Gal(b1-4)GlcNAc(b1-4)]Man(a1-3)[GlcNAc(b1-4)][Neu5Ac(a2-3)Gal(b1-4)GlcNAc(b1-4)Man(a1-6)]Man(b1-4)GlcNAc(b1-4)GlcNAc
# In short: as §1
# [18] = molecular target: Neu5Ac(a2-3)Gal(b1-4)GlcNAc(b1-2)[Neu5Ac(a2-3)Gal(b1-4)GlcNAc(b1-6)]Man(a1-6)[Neu5Ac(a2-3)Gal(b1-4)GlcNAc(b1-2)Man(a1-3)][GlcNAc(b1-4)]Man(b1-4)GlcNAc(b1-4)GlcNAc
# In short: as §1
# [19] = molecular target: Neu5Ac(a2-3)Gal(b1-4)GlcNAc(b1-3)Gal
# In short: as §1
# [20] = molecular target: Neu5Ac(a2-3)Gal(b1-4)GlcNAc(b1-3)Gal(b1-3)GlcNAc
# In short: as §1
# [21] = molecular target: Neu5Ac(a2-3)Gal(b1-4)GlcNAc(b1-3)Gal(b1-4)GlcNAc
# In short: as §1
binder,measurement,setting,value
B1,glycan array binding signal (z-score),[1],-0.277
same,glycan array binding signal (z-score),[2],-0.22
same,glycan array binding signal (z-score),[3],-0.332
same,glycan array binding signal (z-score),[4],0.718
same,glycan array binding signal (z-score),[5],0.138
same,glycan array binding signal (z-score),[6],0.045
same,glycan array binding signal (z-score),[7],-0.328
same,glycan array binding signal (z-score),[8],-0.009
same,glycan array binding signal (z-score),[9],0.034
same,glycan array binding signal (z-score),Neu5Ac(a2-3)Gal(b1-4)Glc,0.185
same,glycan array binding signal (z-score),[10],0.187
same,glycan array binding signal (z-score),[11],1.15
same,glycan array binding signal (z-score),[12],-0.266
same,glycan array binding signal (z-score),[13],-0.142
same,glycan array binding signal (z-score),[14],-0.311
same,glycan array binding signal (z-score),[15],-0.158
same,glycan array binding signal (z-score),[16],0.508
same,glycan array binding signal (z-score),[17],-0.203
same,glycan array binding signal (z-score),[18],-0.322
same,glycan array binding signal (z-score),[19],-0.329
same,glycan array binding signal (z-score),[20],-0.129
same,glycan array binding signal (z-score),[21],-0.005
